# Experimental data: PubChem BioAssay AID588342 (National Center for Advancing Translational Sciences (NCATS), 2011)
# Where “and” joins values, the source holds several entries; their conditions need not be identical. Equal values may be shown once. Out of some 360,000 compounds screened, about 25,000 (6.9%) were called active. The shares of active, inactive and inconclusive entries below differ from those in the screen. Calls come from the whole dose curve; as a rule, active = well fitted inhibition curve with a large enough effect; inconclusive = small, poorly fitted or top-dose-only effect; inactive = flat fitted curve, though single readings scatter. Where the call is inconclusive, the potency comes from a doubtful curve fit.
# Target: Luciferin 4-monooxygenase (Photinus pyralis) (UniProt P08659)
# Test: qHTS profiling assay for firefly luciferase inhibitor/activator using purifed enzyme and Km concentrations of substrates (counterscreen for miR-21 project); note: nearly all actives have a fitted effect of over 55% in size;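 for activity change, negative = inhibition: plate controls were vehicle for no effect and reference inhibitor for full effect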
# Conditions: purified FLuc, luminescence inhibition; activity change, negative = inhibition: at 57.5 µM (top of the series)
# How it was run: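 Purified P. pyralis luciferase, 10 nM final, with Km-level 10 uM D-luciferin and 10 uM ATP in 50 mM Tris acetate pH 7.5, 10 mM Mg acetate, 0.01% Tween-20, 0.05% BSA; 6-point qHTS titration about 60 µM downward; luminescence read.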
# Potency is the fitted concentration of half-maximal effect; tags give direction and shape of the fitted curve.
# Sequence of UniProt P08659 (P08659 whole entry, looked up): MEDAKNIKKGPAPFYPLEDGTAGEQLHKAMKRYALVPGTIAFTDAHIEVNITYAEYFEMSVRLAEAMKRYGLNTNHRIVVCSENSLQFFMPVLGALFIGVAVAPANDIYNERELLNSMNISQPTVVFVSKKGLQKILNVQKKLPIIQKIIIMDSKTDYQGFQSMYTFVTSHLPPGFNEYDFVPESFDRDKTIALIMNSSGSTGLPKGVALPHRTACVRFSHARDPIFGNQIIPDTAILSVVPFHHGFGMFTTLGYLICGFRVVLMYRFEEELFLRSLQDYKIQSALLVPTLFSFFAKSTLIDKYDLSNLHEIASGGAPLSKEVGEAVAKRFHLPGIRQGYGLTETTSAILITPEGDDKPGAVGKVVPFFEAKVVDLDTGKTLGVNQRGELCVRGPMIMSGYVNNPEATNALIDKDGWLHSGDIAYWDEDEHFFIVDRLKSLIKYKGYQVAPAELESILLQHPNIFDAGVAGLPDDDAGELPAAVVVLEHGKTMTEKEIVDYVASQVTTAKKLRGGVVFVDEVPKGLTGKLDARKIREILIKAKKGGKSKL
Structure (SMILES),Potency,"activity change, negative = inhibition"
S=C(Nc1ccccc1)Nc1ccc(Br)cc1,"inconclusive: 23.9 µM [inhibitor, single point]",
CSc1nc2cc(C)nn2c(-c2ccccc2Cl)c1C#N,,inactive: 0.793%
CCCn1nnc(NC(=O)c2ccc(OCC)c(Cl)c2)n1,,inactive: 6.47% [at 2.3 µM]
COC(=O)c1ccccc1NCC(=O)c1ccc(OC)cc1,"inconclusive: 23.9 µM [inhibitor, partial curve]",
Cc1cc(NC(=O)Nc2cc(F)ccc2F)no1,"inconclusive: 23.9 µM [inhibitor, partial curve]",
O=C(CCc1ccc(S(=O)(=O)N2CCOCC2)cc1)N/N=C/c1ccc(O)c(O)c1O,"inconclusive: 7.57 µM [inhibitor, single point]",
O=S(=O)(Nc1cccc(Cl)c1)c1ccc2oc(=S)[nH]c2c1,"inconclusive: 37.9 µM [inhibitor, single point]",
O=[N+]([O-])c1cccc(C2=NCCC(c3ccccc3)O2)c1 (stereo unspecified),"inconclusive: 37.9 µM [inhibitor, single point]",
CC(C)c1ccc(CNc2n[nH]c(-c3ccco3)n2)cc1,"inconclusive: 5.36 µM [inhibitor, partial curve]",
COCCNC(=O)C1=CC(c2ccc3c(c2)OCO3)=NS(=O)(=O)N1C,,inactive: -6.61%
CCC(=O)N1CCc2cc(OC)c(OC)cc2C1COc1ccc2c(C)cc(=O)oc2c1 (stereo unspecified),"inconclusive: 33.8 µM [inhibitor, partial curve, poor fit]",
Cn1cc(S(=O)(=O)N2CCOCC2)cc1C(=O)Nc1cccc(C#N)c1,,inactive: 3.54%
Cc1ccc(NC(=O)C2=COCCO2)cc1S(=O)(=O)N1CCOCC1,,inactive: -4.41%
O=C(O)c1n[nH]c2c1CC(C1CCCCC1)CC2 (stereo unspecified),,inactive: 1.96%
O=C(O)Cc1cn(Cc2cccc(Cl)c2)c2ccccc12,"inconclusive: 15.1 µM [inhibitor, partial curve]",
CCc1ccc(OCc2cc(=O)n3cc(C)sc3n2)cc1,,inactive: 3.84%
COc1ccccc1NC(=S)N/N=C/c1ccc(O)cc1,"inconclusive: 16.9 µM [inhibitor, partial curve, poor fit]",
COc1cccc(NC(=O)Cn2c(=O)n(CCc3ccc(OC)c(OC)c3)c(=O)c3ccccc32)c1,"inconclusive: 6.75 µM [inhibitor, partial curve, poor fit]",
CCOC(=O)c1cc(C(=O)c2ccccc2O)cn2c(=O)c3c(C)c(C)sc3nc12,"inconclusive: 13.5 µM [inhibitor, partial curve, poor fit]",
C=C(C)[C@@H]1CC=C(CN2CCC(CCOC)(C(=O)OCC)CC2)CC1,,inactive: -0.234%
CCn1ccc(C(=O)Nc2sc3c(c2C(=O)OC)CCC3)n1,"inconclusive: 21.3 µM [inhibitor, single point]",
CCOC(=O)c1oc2cc(O)cc(C)c2c(=O)c1-c1cscn1,"inconclusive: 26.9 µM [inhibitor, partial curve, poor fit]",
O=C(CN1C(=O)COc2ccc(S(=O)(=O)N3CCOCC3)cc21)N1CCN(c2ccccc2F)CC1,,inactive: -0.896%
Cc1cc([N+](=O)[O-])ccc1NC(=O)/C=C/c1cccs1,"inconclusive: 13.5 µM [inhibitor, partial curve, poor fit]",

Structure (SMILES),Potency,"activity change, negative = inhibition"
O=C(NCCCO)c1nn(-c2ccc(Cl)cc2)nc1CO,,inactive: -18.3%
N#Cc1c(NC(=S)NC(=O)C2CCCC2)sc2c1CCCCC2,"inconclusive: 23.9 µM [inhibitor, partial curve]",
Cn1cccc1C(=O)Nc1nc(-c2ccccn2)cs1,active: 8.49 µM,
Cc1cccc(CSc2nnc3[nH]c(=O)cc(-c4ccccc4)n23)c1,"inconclusive: 7.57 µM [inhibitor, partial curve]",
COc1cccc(Nc2nc(-c3sc(NC(=O)CC(C)C)nc3C)cs2)c1,"inconclusive: 30.1 µM [inhibitor, single point]",
COc1ccc(C(=O)CSc2cc(C)[nH]c(=O)n2)cc1,"inconclusive: 21.3 µM [inhibitor, single point]",
Cc1ccc(CN2COc3c(Cl)cc4c(-c5ccccc5)cc(=O)oc4c3C2)cc1,,inactive: -2.91%
N#Cc1ccc(-c2ccc(OCC3CNC(=O)O3)cc2)cc1 (stereo unspecified),"inconclusive: 26.9 µM [inhibitor, single point]",
O=C(CNc1ccc(Br)cc1)c1ccccc1,"inconclusive: 2.39 µM [inhibitor, full curve]",
COC(=O)c1sccc1-c1ccc(C(=O)Nc2ccccc2)o1,active: 7.57 µM,
Cc1ccc(OCC(=O)Nc2cccc(C(=O)OCc3cc(=O)n4c(C)csc4n3)c2)cc1,"inconclusive: 5.36 µM [inhibitor, full curve]",
c1cncc(-c2nc(NCCCN3CCOCC3)c3c4c(sc3n2)CCC4)c1,"inconclusive: 37.9 µM [inhibitor, single point]",
CCSc1nnc2n1C(C)(C)Cc1ccccc1-2,"inconclusive: 26.9 µM [inhibitor, partial curve, poor fit]",
CCOc1ccc(N(CC(=O)NCCc2ccc(Cl)cc2)S(=O)(=O)c2c(C)[nH]c(=O)[nH]c2=O)cc1,"inconclusive: 16.9 µM [inhibitor, single point]",
Cc1ccc(-c2cn(-c3ccccc3)c(SCC(N)=O)n2)cc1C,"inconclusive: 23.9 µM [inhibitor, single point]",
O=C(Nc1ccc(N2CCN(C(=O)c3cccs3)CC2)cc1)c1ccc(F)cc1,,inactive: 1.23%
Cc1cccc(CSc2ncccc2C(=O)O)c1,"inconclusive: 26.9 µM [inhibitor, single point] and inconclusive: 21.3 µM [inhibitor, single point]",
O=C(CSc1ncnc2c1cnn2-c1ccccc1)NC1CCS(=O)(=O)C1 (stereo unspecified),"inconclusive: 26.9 µM [inhibitor, partial curve, poor fit]",
CCOC(=O)c1c(N)sc(C(O)(C(F)(F)F)C(F)(F)F)c1-c1ccccc1,,inactive: 0.124%
Cc1ccccc1CSCC(=O)Nc1ccccc1F,"inconclusive: 21.3 µM [inhibitor, single point]",
O=C(N/N=C/c1cccs1)c1cccc(NC(=O)c2ccccc2Cl)c1,active: 23.9 µM,
O=C(CSc1nc2ccccc2s1)Nc1ccc(Cl)c(C(=O)O)c1,"inconclusive: 26.9 µM [inhibitor, partial curve]",
Cc1ccc(NC(=O)c2c(NC(=O)C(F)(F)F)sc3c2CCCCC3)cc1,active: 10.7 µM,
O=C(CSc1nccn1Cc1ccccc1)Nc1ccc2c(c1)OCCO2,active: 13.5 µM,

Structure (SMILES),Potency,"activity change, negative = inhibition"
O=C(Cn1c(-c2cccs2)cc2ccccc21)NCCCN1CCN(c2ccccc2F)CC1,,inactive: 3.25%
COc1ccccc1CN(C)C(=O)CSc1nnc(C2CC2)n1C1CC1,,inactive: -0.648%
O=C(CSc1nnc(COc2ccccc2)o1)Nc1cc(C(F)(F)F)ccc1Cl,"inconclusive: 9.53 µM [inhibitor, partial curve, poor fit]",
Cc1ccc(NC(=O)c2ccc(OCc3c(C)noc3C)cc2)nc1,,inactive: -6.14%
CCOC(=O)Cn1cnc2c(cnn2-c2ccc(Cl)cc2)c1=O,"inconclusive: 19 µM [inhibitor, single point]",
Cc1ccnc(NC(=O)Cn2cc([N+](=O)[O-])cn2)c1,"inconclusive: 37.9 µM [inhibitor, single point]",
COc1ccc(C(=O)NCC(c2ccccc2)N2CCCC2)cc1S(=O)(=O)N1CCOCC1 (stereo unspecified),,inactive: 0.956%
O=C(Cc1ccccc1)c1ccc(Cl)cc1,"inconclusive: 37.9 µM [inhibitor, single point]",
O=C(Nc1cccc(-c2ccc(N3CCCCC3)nn2)c1)c1ccco1,active: 0.379 µM,
Cc1ccc(C)c(OCC(=O)NC2CCCCCC2)c1,"inconclusive: 19 µM [inhibitor, partial curve]",
Cc1cccc2nc(COc3ccc(-c4ccccc4)cc3)cn12,active: 10.7 µM,
Cc1ccc(NS(=O)(=O)c2ccc(-c3cc(C)no3)cc2)c(Br)c1,"inconclusive: 13.5 µM [inhibitor, partial curve]",
NC(=O)c1ccccc1OCCOc1ccc(Br)cc1,"inconclusive: 21.3 µM [inhibitor, partial curve, poor fit]",
COc1cccc(NC(=O)c2ccccc2NS(C)(=O)=O)c1,"inconclusive: 33.8 µM [inhibitor, single point]",
COc1ccc(/C=N/NC(=O)c2nc(-c3ccccc3)n(-c3ccccc3)n2)c(O)c1,"inconclusive: 30.1 µM [inhibitor, partial curve, poor fit]",
O=C(NNC(=S)NCc1ccccc1)c1ccc2c(c1)OCO2,,inactive: -4.59%
FC(F)(F)c1cnc(-c2cnc(-c3ccccn3)nc2)c(Cl)c1,active: 10.7 µM,
NC(N)=Nc1nc2ccc(Cl)cc2c(=O)[nH]1,,inactive: -1.74%
COc1ccc(NC(=O)CCc2c(C)nn(-c3ccc(N4CCOCC4)nn3)c2C)cc1,"inconclusive: 21.3 µM [inhibitor, single point]",
COc1ccccc1NC1=NC(CO)(CO)CS1,"inconclusive: 37.9 µM [inhibitor, partial curve, poor fit]",
O=C(Nc1cccc(NC(=O)c2ccccc2Cl)c1)c1cccs1,"inconclusive: 23.9 µM [inhibitor, partial curve]",
CCCCCN(C(=O)CCC(=O)OCc1cc(C)ccc1C)c1c(N)n(CCCC)c(=O)[nH]c1=O,"inconclusive: 8.49 µM [inhibitor, single point]",
CS(=O)(=O)c1ccc(C(=O)Nc2nc(-c3ccco3)c(-c3ccco3)s2)cc1,"inconclusive: 26.9 µM [inhibitor, single point]",
